Reference: the supplement of paper PMC10441789
The other results are listed elsewhere or left out. Antibody binding of pooled human sera (four to six donors per pool; dilution not stated) to peptides of the Trypanosoma cruzi antigen TSSA on microarrays. Quantile-normalised fluorescence in arbitrary units, mean of duplicate arrays; higher = more binding. No active / inactive call. The uninfected pools are read here as the healthy donors of the same country. The strongest signals lie near the top of the scale (about 60,000).

Legend:
Test in all cases: antibody binding signal (normalised fluorescence) (arbitrary fluorescence units); higher = stronger serum antibody binding to peptide
[1] = test system: pooled sera of chronic Chagas disease patients, Argentina
Experimental: (§1)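 Microarray of 15-residue peptides over residues 30-55 of Trypanosoma cruzi TSSAII, each with 1 to 10 substitutions at naturally variable positions, probed with one serum pool per country.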

[2] = test system: pooled sera of chronic Chagas disease patients, Bolivia
Experimental: as §1

[3] = test system: pooled sera of chronic Chagas disease patients, Brazil
Experimental: as §1

[4] = test system: pooled sera of chronic Chagas disease patients, Colombia
Experimental: as §1

[5] = test system: pooled sera of chronic Chagas disease patients, Mexico
Experimental: as §1

[6] = test system: pooled sera of chronic Chagas disease patients, USA
Experimental: as §1

[7] = test system: pooled sera of uninfected people, Argentina
Experimental: as §1

[8] = test system: pooled sera of uninfected people, Bolivia
Experimental: as §1

[9] = test system: pooled sera of uninfected people, Brazil
Experimental: as §1

[10] = test system: pooled sera of uninfected people, Colombia
Experimental: as §1

[11] = test system: pooled sera of uninfected people, Mexico
Experimental: as §1

[12] = test system: pooled sera of uninfected people, USA
Experimental: as §1

Sequence | antibody binding signal [1] | antibody binding signal [2] | antibody binding signal [3] | antibody binding signal [4] | antibody binding signal [5] | antibody binding signal [6] | antibody binding signal [7] | antibody binding signal [8] | antibody binding signal [9] | antibody binding signal [10] | antibody binding signal [11] | antibody binding signal [12]
PSGKENKAATGETPS | 6070 | 6900 | 15600 | 3550 | 4760 | 13000 | 5080 | 3650 | 251 | 903 | 394 | 345
GTDNKTATGETPSPP | 594 | 1310 | 31200 | 204 | 252 | 7920 | 175 | 486 | 1030 | 142 | 172 | 358
KEKKPAAGGTPSPSG | 168 | 160 | 144 | 1380 | 182 | 416 | 105 | 85.3 | 521 | 108 | 79.1 | 305
ISTPPSGTDNKAATG | 38000 | 42400 | 49700 | 1630 | 11300 | 19800 | 1070 | 665 | 1650 | 238 | 295 | 293
ENKTATGGTPSQSGA | 491 | 2140 | 535 | 922 | 439 | 1050 | 504 | 185 | 563 | 163 | 883 | 183
KAAAGEAPSQSGASS | 646 | 9860 | 15600 | 310 | 212 | 6650 | 270 | 692 | 107 | 126 | 376 | 179
EKKTAAGGTPSPSGA | 1230 | 258 | 223 | 9810 | 561 | 1880 | 195 | 731 | 1050 | 266 | 171 | 647
TDKKAATGEAPSPSG | 19500 | 30600 | 23200 | 218 | 350 | 23000 | 477 | 105 | 229 | 598 | 155 | 212
ENKPAAGETPSQPGA | 1850 | 5800 | 41500 | 342 | 319 | 5310 | 168 | 1300 | 249 | 346 | 207 | 193
GTDNKTAAGETPSPS | 252 | 309 | 29500 | 325 | 497 | 2250 | 176 | 613 | 1360 | 176 | 420 | 2220
TPPSGKEKKAAAGGA | 5010 | 418 | 1060 | 1550 | 25900 | 1110 | 418 | 342 | 813 | 186 | 105 | 143
KEKKPAAGETPSPPG | 184 | 218 | 611 | 181 | 147 | 765 | 106 | 114 | 93.1 | 92.9 | 105 | 508
PPSGKENKPATGGTP | 8390 | 3960 | 5160 | 954 | 2770 | 11700 | 4530 | 2760 | 255 | 592 | 262 | 616
DNKAAAGGTPSQPGA | 271 | 337 | 2290 | 3330 | 327 | 1210 | 318 | 425 | 2120 | 484 | 1110 | 135
TPPSGKENKAAAGGT | 19300 | 1150 | 1740 | 1540 | 5980 | 3910 | 3470 | 1210 | 1280 | 628 | 153 | 205
TPPSGTENKTAAGEA | 44200 | 34900 | 45100 | 185 | 2390 | 13100 | 1730 | 255 | 375 | 263 | 176 | 244
KEKKPAAGETPSQPG | 316 | 593 | 24900 | 165 | 136 | 1490 | 111 | 167 | 108 | 155 | 73.1 | 387
KDKKPATGGTPSPPG | 296 | 238 | 138 | 447 | 224 | 324 | 153 | 97.7 | 234 | 125 | 82.5 | 96.7
TEKKTAAGGAPSQSG | 764 | 1540 | 269 | 9550 | 869 | 1330 | 195 | 182 | 241 | 183 | 836 | 276
KDNKAAAGGTPSQPG | 212 | 179 | 312 | 1280 | 171 | 913 | 308 | 1700 | 501 | 227 | 183 | 98.9
TEKKAAAGETPSPPG | 605 | 239 | 1150 | 422 | 355 | 2520 | 137 | 237 | 225 | 191 | 262 | 1150
DNKTATGGTPSPSGA | 489 | 1170 | 733 | 817 | 392 | 630 | 301 | 183 | 646 | 448 | 330 | 193
TPPSGTEKKAATGGT | 34000 | 5660 | 27000 | 567 | 10400 | 3000 | 1070 | 382 | 1940 | 803 | 133 | 207

Sequence | antibody binding signal [1] | antibody binding signal [2] | antibody binding signal [3] | antibody binding signal [4] | antibody binding signal [5] | antibody binding signal [6] | antibody binding signal [7] | antibody binding signal [8] | antibody binding signal [9] | antibody binding signal [10] | antibody binding signal [11] | antibody binding signal [12]
SSTPPSGKDKKAATG | 23700 | 781 | 934 | 238 | 40400 | 757 | 143 | 354 | 133 | 174 | 92.5 | 119
TEKKTATGEAPSPPG | 12600 | 26000 | 14500 | 427 | 412 | 19800 | 263 | 126 | 509 | 149 | 157 | 147
GTDNKAAAGGAPSPP | 313 | 264 | 29600 | 3220 | 308 | 935 | 220 | 532 | 1690 | 293 | 185 | 287
GKDKKAAAGGTPSPS | 264 | 242 | 168 | 1500 | 562 | 1270 | 93.8 | 66.3 | 484 | 127 | 66.4 | 79.6
GKDNKAAAGETPSQS | 870 | 260 | 5360 | 1740 | 1910 | 1680 | 163 | 287 | 100 | 225 | 98.9 | 89.5
GKDKKPATGGTPSPS | 486 | 266 | 192 | 948 | 681 | 742 | 148 | 105 | 221 | 185 | 81.7 | 88.9
GTEKKAAAGEAPSQP | 5880 | 9940 | 39500 | 1080 | 1040 | 12500 | 102 | 1180 | 153 | 96.9 | 90.5 | 123
TPPSGTENKAAAGGA | 50600 | 44400 | 49900 | 3610 | 2670 | 19800 | 3780 | 613 | 978 | 782 | 389 | 2310
GTEKKTATGETPSQP | 1090 | 2070 | 30900 | 647 | 889 | 8190 | 261 | 645 | 434 | 112 | 288 | 152
PPSGKDKKTATGEAP | 8700 | 2420 | 3430 | 1200 | 17800 | 15000 | 324 | 418 | 111 | 275 | 188 | 131
GKEKKTATGGTPSQP | 1650 | 257 | 370 | 2830 | 2450 | 2870 | 292 | 83.5 | 132 | 116 | 288 | 85.8
TDKKAAAGGTPSPPG | 1300 | 206 | 196 | 5590 | 422 | 1570 | 129 | 105 | 1270 | 199 | 95.1 | 130
TPPSGKDKKTAAGGA | 6370 | 1860 | 648 | 2200 | 37000 | 837 | 379 | 376 | 188 | 220 | 105 | 180
TPPSGTEKKTATGET | 30200 | 11300 | 21200 | 1260 | 2250 | 1240 | 619 | 158 | 243 | 178 | 141 | 126
KKPATGETPSQSGAS | 9510 | 4200 | 25700 | 149 | 223 | 18300 | 416 | 485 | 115 | 139 | 544 | 509
DNKTAAGGAPSPSGA | 335 | 417 | 506 | 6190 | 587 | 518 | 406 | 404 | 633 | 301 | 776 | 211
GKDNKAAAGEAPSQS | 8490 | 16700 | 17500 | 17400 | 15400 | 12300 | 232 | 327 | 138 | 230 | 102 | 124
DNKAAAGGTPSPSGA | 481 | 311 | 457 | 3860 | 286 | 1190 | 211 | 393 | 2160 | 741 | 645 | 135
GKENKAAAGEAPSQP | 11600 | 6560 | 39100 | 15900 | 16900 | 23100 | 355 | 146 | 99.5 | 126 | 121 | 88.8
KAATGETPSPSGASS | 1340 | 1080 | 12800 | 238 | 2500 | 7700 | 239 | 235 | 170 | 166 | 147 | 991
DNKAATGETPSQSGA | 3080 | 4600 | 26200 | 85.2 | 127 | 11300 | 101 | 216 | 247 | 136 | 218 | 111
DNKTAAGGAPSPPGA | 401 | 466 | 458 | 5160 | 584 | 765 | 257 | 396 | 564 | 298 | 573 | 205
PPSGKENKTATGGTP | 4820 | 547 | 3360 | 1770 | 2590 | 3880 | 2690 | 1320 | 133 | 561 | 274 | 274
